Values joined by “and” are separate entries in the source; they are usually repeats but may differ in a detail not shown here. Equal values may be shown once. In all, about 350,000 compounds went through this assay and about 31,000 (8.9%) were called active. This list was built around the results that the source calls inconclusive (neither active nor inactive); the mix of calls is not that of the screen. Calls come from the whole dose curve; as a rule, active = well fitted inhibition curve with a large enough effect; inconclusive = small, poorly fitted or top-dose-only effect; inactive = no such curve, though single readings can be large or run the other way. Where the call is inconclusive, the potency comes from a doubtful curve fit.
molecular target: Histone-lysine N-methyltransferase EHMT2 (Homo sapiens) (UniProt Q96KQ7); experiment: qHTS Assay for Inhibitors of Histone Lysine Methyltransferase G9a; details: G9a H3K9 monomethylation, AlphaScreen, 2 h; activity, negative = inhibition: at 59 µM (top of the series) unless noted; note: nearly all actives have a fitted effect of over 75% in size
UniProt Q96KQ7, sequence (Q96KQ7 whole entry, looked up): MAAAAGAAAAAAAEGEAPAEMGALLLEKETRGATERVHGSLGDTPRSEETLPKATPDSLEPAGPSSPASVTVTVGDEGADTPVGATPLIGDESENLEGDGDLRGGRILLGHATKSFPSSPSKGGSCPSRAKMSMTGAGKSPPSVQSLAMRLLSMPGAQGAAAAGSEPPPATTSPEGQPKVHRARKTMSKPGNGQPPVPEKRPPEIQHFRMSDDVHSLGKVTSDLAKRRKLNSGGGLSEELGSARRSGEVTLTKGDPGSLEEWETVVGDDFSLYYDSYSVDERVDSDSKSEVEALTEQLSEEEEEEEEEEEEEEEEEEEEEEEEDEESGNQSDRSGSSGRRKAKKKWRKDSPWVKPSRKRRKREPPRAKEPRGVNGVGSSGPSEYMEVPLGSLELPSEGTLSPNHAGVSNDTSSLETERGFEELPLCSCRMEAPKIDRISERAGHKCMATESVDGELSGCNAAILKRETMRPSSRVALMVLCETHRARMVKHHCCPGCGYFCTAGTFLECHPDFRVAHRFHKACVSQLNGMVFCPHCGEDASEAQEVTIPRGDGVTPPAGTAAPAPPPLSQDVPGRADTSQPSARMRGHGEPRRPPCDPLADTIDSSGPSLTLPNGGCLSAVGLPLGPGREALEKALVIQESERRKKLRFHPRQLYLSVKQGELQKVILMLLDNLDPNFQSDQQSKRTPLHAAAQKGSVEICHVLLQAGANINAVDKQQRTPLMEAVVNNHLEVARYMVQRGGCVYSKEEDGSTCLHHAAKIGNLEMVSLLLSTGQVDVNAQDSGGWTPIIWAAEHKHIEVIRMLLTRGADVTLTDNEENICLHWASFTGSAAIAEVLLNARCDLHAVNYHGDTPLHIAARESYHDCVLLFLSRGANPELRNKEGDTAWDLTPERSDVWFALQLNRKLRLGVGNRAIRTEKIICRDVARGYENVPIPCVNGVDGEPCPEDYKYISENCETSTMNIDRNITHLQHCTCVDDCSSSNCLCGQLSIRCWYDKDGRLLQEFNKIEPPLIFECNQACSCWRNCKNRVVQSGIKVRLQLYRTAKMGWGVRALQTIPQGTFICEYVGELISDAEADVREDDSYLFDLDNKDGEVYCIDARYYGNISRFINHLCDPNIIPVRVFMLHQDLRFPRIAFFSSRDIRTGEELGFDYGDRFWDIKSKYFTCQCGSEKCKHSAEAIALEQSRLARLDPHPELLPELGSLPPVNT
Method in brief: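 G9a (20 nM) preincubated 15 min RT with compounds, then 500 nM biotinylated H3K9 peptide and 20 uM SAM added; 2 h RT reaction. Monomethyl-H3K9 product detected by AlphaScreen with anti-H3K9me1 antibody, streptavidin donor and anti-rabbit IgG acceptor beads.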
% is set by controls: 0 for no effect and ±100 for the full control effect; potency is the fitted concentration of half-maximal effect; tags give direction and shape of the fitted curve.

| Compound | Potency | activity, negative = inhibition |
| --- | --- | --- |
| CN(C)CCNc1c2c(c(C#N)c3nc4ccccc4n13)CCCC2 | inconclusive: 50.1 µM [inhibitor, partial curve, poor fit] |  |
| Cc1nc2ccccc2c2oc(C(=O)NCC3COc4ccccc4O3)cc12 (configuration not stated) | inconclusive: 89.1 µM [inhibitor, single point] |  |
| O=C(Nc1sc2c(c1C(=O)NCc1ccccc1)CCCC2)c1cc(=O)c2ccccc2o1 | active: 11.2 µM |  |
| CC(=O)[C@@H]1[C@@H](C(=O)c2ccc(F)cc2)[C@]2(C(=O)Nc3ccccc32)[C@H]2C=Cc3cc(F)ccc3N12 | inconclusive: 6.31 µM [inhibitor, single point] |  |
| O=C(c1cc(COc2ccc(F)cc2Cl)on1)N1CCC(OCc2cccnc2)CC1 | inactive |  |
| CCOC(=O)c1nc(N)c(=O)n(-c2ccc(C)cc2)n1 | inactive |  |
| CCOc1ccc(/C=N/Nc2ccc(C(F)(F)F)cc2[N+](=O)[O-])cc1O | active: 44.7 µM |  |
| CC(=O)N1CCN(c2ccccc2NC(=O)COc2cc(C)cc(C)c2)CC1 | inactive |  |
| COc1cc(Cl)c(C)cc1NC(=O)Cn1c2ncccc2c(=O)n1-c1ccccc1 | inactive |  |
| Cc1ccc(CN2CCC(N3CC(C)OC(C)C3)CC2)cc1 (configuration not stated) | active: 12.6 µM |  |
| Cc1cccc(C(=O)NC(=S)Nc2ccc(N3CCOCC3)cc2)c1 | active: 7.94 µM |  |
| O=C(CSc1n[nH]c(-c2ccncc2)n1)c1cccc([N+](=O)[O-])c1 | active: 22.4 µM |  |
| O=C(CCNS(=O)(=O)c1ccc(Br)cc1)N1CCN(c2ccccc2O)CC1 | inconclusive: 50.1 µM [inhibitor, partial curve] |  |
| COc1ccc(C2C(C(=O)c3cccs3)=C(O)C(=O)N2c2nnc(C)s2)cc1OC (configuration not stated) | inconclusive: 3.16 µM [inhibitor, partial curve, poor fit] |  |
| COCCN1CC(CNC(=O)c2cc(COc3ccc(C)c(C)c3)on2)CC1=O (configuration not stated) | inactive |  |
| O=C(NNC(=S)Nc1ccccc1Cl)c1ccccc1Cl | inconclusive: 14.1 µM [inhibitor, partial curve, poor fit] |  |
| COc1ccc(Cl)cc1Nc1nc(-c2sc(NC(=O)c3ccco3)nc2C)cs1 | inconclusive: 25.1 µM [inhibitor, partial curve, poor fit] |  |
| COC(=O)c1ccc2c(=O)[nH]c(CSc3nc(-c4ccc(F)cc4)cs3)nc2c1 | inconclusive: 79.4 µM [inhibitor, single point] |  |
| O=C(Nc1cccc(NC(=O)c2ccccc2[N+](=O)[O-])n1)c1ccccc1[N+](=O)[O-] |  | inactive: -7.36% [at 0.0925 µM] |
| O=[N+]([O-])c1cccc(/C=C/C=N/Nc2nc(N3CCCCC3)nc(N3CCCCC3)n2)c1 | inconclusive: 22.4 µM [inhibitor, partial curve, poor fit] |  |
| Cc1ccc(C)c(/C(O)=C2\C(=O)C(=O)N(CCCn3ccnc3)C2c2cccnc2)c1 (configuration not stated) | inconclusive: 39.8 µM [inhibitor, single point] |  |
| CCOC(=O)c1noc2ncnc(N3CCN(c4cccc(C(F)(F)F)c4)CC3)c12 | inactive |  |
| O=C(O)C1Cc2ccccc2CN1S(=O)(=O)c1ccc(Cl)cc1 (configuration not stated) | inconclusive: 50.1 µM [inhibitor, partial curve, poor fit] |  |

| Compound | Potency | activity, negative = inhibition |
| --- | --- | --- |
| CCN(CC(=O)Nc1cc(Cl)ccc1C)C(=O)C1COc2ccccc2O1 (configuration not stated) |  | inactive: -3.34% [at 12.7 µM] |
| O=C(COc1ccccc1)Nc1ccc(C(=O)N2CCCC2)cc1 | inactive |  |
| CN(C)CCCN(C(=O)c1cccc(N2C(=O)CCC2=O)c1)c1nc2cc3c(cc2s1)OCO3 | inconclusive: 89.1 µM [inhibitor, single point] |  |
| Oc1ccccc1C=Nc1cccc2ccccc12 | inconclusive: 79.4 µM [inhibitor, single point] |  |
| CCC1(c2ccccc2)NC(=O)N(CC(=O)Nc2nnc(C3CC3)s2)C1=O (configuration not stated) | inactive |  |
| CC(C)S(=O)(=O)c1csc(C(=O)Nc2ccc(F)cc2)c1N | inconclusive: 17.8 µM [inhibitor, partial curve, poor fit] |  |
| COCCCn1c(SCC(=O)O)nc2cc(OC)c(OC)cc2c1=N | inconclusive: 44.7 µM [inhibitor, partial curve] |  |
| Cc1onc(-c2ccccc2)c1C(=O)NC(=S)NNC(=O)c1cccnc1 | inconclusive: 22.4 µM [inhibitor, single point] |  |
| Cn1c(=O)c2c(nc(N3CCCCCC3)n2CCSc2nc3ccccc3o2)n(C)c1=O | inconclusive: 28.2 µM [inhibitor, partial curve] |  |
| CC(=C1C(=O)c2ccccc2C1=O)N1CCN(Cc2ccccc2)CC1 | inconclusive: 2 µM [inhibitor, partial curve, poor fit] |  |
| CCCS(=O)(=O)NCc1cn2cccc(C)c2n1 | inconclusive: 35.5 µM [inhibitor, single point] |  |
| CCOC(=O)c1c(-c2ccc(C)cc2)csc1NC(=O)c1cc(=O)c2cc(C)cc(C)c2o1 | active: 7.08 µM |  |
| O=C(Nc1cccc(C(F)(F)F)c1)c1cccnn1 | inactive |  |
| COc1ccc(-c2cc(C)no2)cc1S(=O)(=O)NCc1ccco1 | inconclusive: 0.562 µM [inhibitor, full curve] |  |
| O=C(O)CCC(=O)N1CCc2cc(S(=O)(=O)N3CCN(c4ccc(F)cc4)CC3)ccc21 | inconclusive: 100 µM [inhibitor, single point] |  |
| S=c1[nH]nc(-c2ccncc2)n1CC1CCCO1 (configuration not stated) |  | inconclusive: -104% [inhibitor] |
| CC(=O)c1ccc(NC(=O)C2=CC(c3ccc(C)cc3)=NS(=O)(=O)N2C)cc1 | active: 14.1 µM |  |
| CCCN1CCC2(CC1)C(C#N)=C(N)Oc1c2sc2nc(C)cc(C)c12 |  | inconclusive: -62.3% [inhibitor] |
| Cc1ccc(NC(=O)Cn2cccc2)cc1C | inconclusive: 79.4 µM [inhibitor, single point] |  |
| Cc1nc(SCC(=O)c2ccccc2)n[nH]1 | active: 3.16 µM |  |
| O=C(CCCCl)N1CCc2[nH]c3ccccc3c2C1 |  | inactive: 5.97% [at 0.501 µM] |
| N#Cc1ccc2ccn(CC(=O)NC3CCCCCC3)c2c1 | inconclusive: 1.12 µM [inhibitor, single point] |  |
| Cc1nc2scc(C)n2c(=O)c1S(=O)(=O)Nc1ccc(OC(F)(F)F)cc1 | inactive |  |

| Compound | Potency | activity, negative = inhibition |
| --- | --- | --- |
| COCCN(C(=O)c1ccc(C)o1)c1c(N)n(CC(C)C)c(=O)[nH]c1=O |  | inactive: -1.59% [at 12.7 µM] |
| CCOc1cc(C(=O)Nc2ccc(S(=O)(=O)N3CCCCC3)cc2)ccc1OCC(=O)N1CCOCC1 | inconclusive: 56.2 µM [inhibitor, partial curve, poor fit] |  |
| O=C(NCCCN1CCN(c2ccccc2F)CC1)Nc1ccccc1[N+](=O)[O-] | inconclusive: 79.4 µM [inhibitor, partial curve, poor fit] |  |
| CCN(CC)c1ccc(/C=N/N=C(c2ccccc2)c2ccccc2)c(O)c1 | inconclusive: 0.398 µM [inhibitor, full curve, poor fit] |  |
| CCCCn1c(N)c(N(CC(C)C)C(=O)c2c(-c3ccccc3)noc2C)c(=O)[nH]c1=O | inactive |  |
| Cc1ccc(C(=O)Nc2nc3nc(-c4ccccc4)cc(=O)n3[nH]2)cc1 | inconclusive: 3.16 µM [inhibitor, single point] and inconclusive: 20 µM [inhibitor, partial curve, poor fit] |  |
| COc1ccc(CNC(=O)C(C)Sc2nc3ccccc3c(=O)n2CC2CCCO2)cc1 (configuration not stated) |  | inactive: 10.8% [at 12.7 µM] |
| c1ccc(-c2n[nH]c(-c3ccccn3)n2)nc1 | inconclusive: 1.41 µM [inhibitor, single point] |  |
| CCC(C)NC(=O)CO/N=C/c1ccc(C(=O)OC)cc1 (configuration not stated) | inconclusive: 31.6 µM [inhibitor, full curve, poor fit] |  |
| O=C(/C=C\N1CCOCC1)c1ccc(Br)cc1 | inactive |  |
| COC(=O)c1sc(NC(=O)CSc2nc3cccnc3n2C2CCCCC2)nc1C | inconclusive: 89.1 µM [inhibitor, single point] |  |
| O=C(O)[C@H]1CCCN1S(=O)(=O)c1cccc2cccnc12 |  | inactive: 13.2% [at 12.7 µM] |
| CNC(=O)c1sc(-c2ccccc2)nc1C | inconclusive: 39.8 µM [inhibitor, full curve] |  |
| CCOC(=O)C1=C(C)NC2=C(C(=O)CC(C)(C)C2)C1c1ccc(O)c(OCC)c1 (configuration not stated) | inconclusive: 35.5 µM [inhibitor, single point] |  |
| CCCCN(Cc1nc2ccccc2c(=O)[nH]1)C(=O)c1nn(C)c(=O)c2ccccc12 | inconclusive: 50.1 µM [inhibitor, partial curve] |  |
| Cc1ccc(C(=O)COC(=O)C2CC3CCCC(C2)C3=O)cc1[N+](=O)[O-] (configuration not stated) | inconclusive: 89.1 µM [inhibitor, partial curve, poor fit] |  |
| Cc1nc(C)c(C(=O)NNS(=O)(=O)c2ccccc2)s1 | inconclusive: 22.4 µM [inhibitor, single point] |  |
| COc1cc(C(c2c(C)[nH][nH]c2=O)c2c(C)[nH][nH]c2=O)ccc1OC(C)C | inactive |  |
| Cc1ccc(CNC(=O)CCS(=O)(=O)c2cc3c(cc2C)NC(=O)CO3)cc1 | inactive |  |
| CC(=O)OCC1=C(C(=O)O)N2C(=O)C(NC(=O)c3ccc(COc4ccc(Cl)cc4)o3)C2SC1 (configuration not stated) | inconclusive: 44.7 µM [inhibitor, partial curve] |  |
| O=C(NNC1=C(C(=O)C(F)(F)F)CCC1)c1ccncc1 | inconclusive: 17.8 µM [inhibitor, partial curve, poor fit] |  |

Source: PubChem BioAssay AID504332 (National Center for Advancing Translational Sciences (NCATS), 2011)
